Assay results published in PubChem BioAssay AID485344 (National Center for Advancing Translational Sciences (NCATS), 2010).
The whole screen tested about 340,000 compounds, of which about 6,900 (2%) were called active. Cut-off read from the data, not from the text of the source: active = inhibition above about 30%; inactive = below that, where a call was filed. This is a selection; strong and weak results do not stand in their true shares. The source gives no active or inactive call for entries shown without one.
Note: 0% is about no effect.

These molecules were tested against D(2) dopamine receptor (Homo sapiens) (UniProt P14416) (assay: HTS Assay for Allosteric Antagonists of the Human D2 Dopamine Receptor: Primary Screen for Antagonists). Settings: HEK293 TREx D2 cells, calcium flux, dopamine EC80; at 10 µM; stronger effect = higher value.
Sequence of UniProt P14416 (P14416 whole entry, looked up): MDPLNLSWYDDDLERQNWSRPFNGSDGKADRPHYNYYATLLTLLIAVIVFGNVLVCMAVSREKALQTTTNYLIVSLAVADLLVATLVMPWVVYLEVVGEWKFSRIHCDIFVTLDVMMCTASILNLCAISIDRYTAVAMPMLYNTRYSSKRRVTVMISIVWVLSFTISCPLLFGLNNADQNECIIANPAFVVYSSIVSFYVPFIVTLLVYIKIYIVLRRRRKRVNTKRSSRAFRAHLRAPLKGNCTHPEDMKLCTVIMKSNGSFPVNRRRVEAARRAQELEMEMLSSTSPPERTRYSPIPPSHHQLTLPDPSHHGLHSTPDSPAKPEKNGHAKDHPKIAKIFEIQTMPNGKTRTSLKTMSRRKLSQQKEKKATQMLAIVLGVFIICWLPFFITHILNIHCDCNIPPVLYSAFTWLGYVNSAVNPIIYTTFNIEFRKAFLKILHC
In short: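 Read-out: kinetic calcium fluorescence (1 cycle/s) in inducible HEK293 T-REx D2 cells after an EC80 dopamine addition that followed 180 s compound preincubation. Loss of the dopamine response indicates antagonism.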
COc1ccc(Cl)cc1C(=O)NNC(=O)COC(=O)CCN=C1NS(=O)(=O)c2ccccc21 was tested, and the inhibition was active: 30.4%. For Cc1c(C)n(C)c2ccc(C(=O)N3CCN(c4ccccn4)CC3)cc12, the inhibition was active: 31.4%. For COc1ccc(/C=C/c2nc(C#N)c(NC3CCCCC3)o2)cc1OC, the inhibition was 7.24%. O=C(CCS(=O)(=O)c1cc2c3c(c1)CCN3C(=O)CC2)NCc1ccc(Cl)cc1 showed an inhibition of 1.94%. Work on CCOC(=O)C1=C(CN2CCN(c3ccccc3F)CC2)NC(=O)NC1c1ccc(OC)cc1 (stereo not drawn) yielded an inhibition of -14.2%. In the case of COC(=O)CSc1ccc2nnc(CCNS(=O)(=O)c3ccc(C)cc3)n2n1, the inhibition is reported as -21.6%. In the case of Cc1ccc(CNC(=O)CCc2c(C)nn(-c3ccc(N4CCCC4)nn3)c2C)cc1, the inhibition is reported as -6.41%. In the case of CCc1cccc(C)c1Nc1c(-c2cccc(O)c2)nc2cnccn12, the inhibition is reported as 20.7%. CC(C)CCNC(=O)c1cnc2sc(N3CCCCC3)nn2c1=O gave an inhibition of 1.73%. COc1ccc(N(C(=O)c2cccc(C)c2)S(=O)(=O)c2ccc(Cl)cc2)cc1 showed an inhibition of -2.27%. For CCOc1cc(C(=O)N2CCn3c4c(c5cc(C)ccc53)CCCC42)cc(OCC)c1OCC (stereo not drawn), the inhibition was 5.05%. Molecule Cc1c(NC(=O)Nc2ccccc2C(F)(F)F)sc2nc3n(c(=O)c12)CCC(C)CC3 (stereo not drawn) has an inhibition of 3.38%. CC(NC(=O)C1CCN(c2nc3ccccc3nc2C(F)(F)F)CC1)c1ccccc1 (stereo not drawn) gave an inhibition of 5.55%. O=C(N[C@H]1CC1c1ccccc1)c1ccc([N+](=O)[O-])cc1 (stereo partly drawn) was tested, and the inhibition was active: 32.9%. For CCCCN(CC)CCCNC(=O)Nc1sc2nc3n(c(=O)c2c1C)CCC(C)CC3 (stereo not drawn), the inhibition was 3.4%. In the case of CCCCNC(=O)c1cccc(-n2c(C)nc3cccnc32)c1, the inhibition is reported as 9.3%. With Cc1ccc2[nH]c3c(N4CCN(Cc5ccccc5)CC4)ncnc3c2c1 the inhibition was active: 38.6%. Molecule Cc1nc2ccc(S(=O)(=O)N(C)CC(=O)Nc3cccc(C(F)(F)F)c3)cc2s1 has an inhibition of 8.34%. Molecule CCOC(=O)c1cc(S(=O)(=O)N2CCN(c3ccccc3F)CC2)[nH]n1 has an inhibition of -1.86%. In the case of COc1ccc(N2CCN(CCCNC(=O)Cn3c(-c4cccs4)cc4ccccc43)CC2)cc1, the inhibition is reported as -7.15%. In the case of CCCOc1ccccc1N/C(N)=N/c1nc(C)cc(C)n1, the inhibition is reported as active: 30.9%. CCOc1ccc(CNS(=O)(=O)c2ccc(-c3coc(C)n3)cc2)cc1 gave an inhibition of 6.16%. In the case of COc1cccc(C2C(C(=O)Nc3ccc(C)cc3C)=C(C)Nc3nc4ccccc4n32)c1OC (stereo not drawn), the inhibition is reported as -16.4%. In the case of COc1ccc2nc(N(Cc3cccnc3)C(=O)C3CCCCC3)sc2c1, the inhibition is reported as 20.5%. Work on CC1(C)C(=O)N(CC(=O)Nc2ccc(Br)cc2F)c2ccccc21 yielded an inhibition of -18.8%. For Cn1cc(S(=O)(=O)N2CCOCC2)cc1C(=O)Nc1ccc(Cl)c(C(F)(F)F)c1, the inhibition was 10.2%. Cc1ccc(O)c(NC(=O)c2cc(-c3ccccc3O)no2)c1 showed an inhibition of -27.1%. Cc1cc(NC(=O)Nc2nnc(N(C)Cc3ccccc3)s2)ccc1Br was tested, and the inhibition was 0.547%. Molecule CCOc1ccccc1NC(=O)Cc1noc2ccc(C)cc12 has an inhibition of 17.7%. Work on CCOc1ccc2nc(NC(=O)c3nc(SC)ncc3Cl)sc2c1 yielded an inhibition of -7.1%. Cn1cnc2c(=O)oc3ccc(S(=O)(=O)Nc4ccc(F)cc4)cc3c21 gave an inhibition of 9%. COc1cc2c(cc1OC)C1Cc3ccc(OC)c(OC)c3CN1CC2 (stereo not drawn) was tested, and the inhibition was active: 79.7%. For COc1ccc(-c2nnc(SCc3cccc(Cl)c3)o2)cc1, the inhibition was 5.13%. In the case of CC(=O)N1CCC(N(Cc2ccc(C)o2)C(=O)Nc2ccc(C)cc2)CC1, the inhibition is reported as -6.26%. CCOc1ccc(OCC)c(NS(=O)(=O)c2ccc(-c3coc(C)n3)cc2)c1 showed an inhibition of -17.2%. For Cn1c(=O)[nH]c(=O)c2c1nc(NCCc1ccccc1)n2Cc1ccc(F)cc1, the inhibition was -10.7%. Molecule COc1ccc(NC(=O)c2c(NC(=O)c3ccc(Br)cc3)sc3c2CCCC3)cc1 has an inhibition of -18.8%. In the case of Cc1ccc2c(c1)N(CCC(=O)NCc1ccccc1Cl)C(=O)CO2, the inhibition is reported as -11.9%. Cc1ccc2onc(CC(=O)Nc3ccc(C(C)C)cc3)c2c1 showed an inhibition of 11.8%. With O=c1c2oc3ccccc3c2n(Cc2ccccc2F)c(=O)n1Cc1ccccc1 the inhibition was 4.17%. With CCOC(=O)C1CCN(CC(O)COc2ccc(C(C)=O)cc2)CC1 (stereo not drawn) the inhibition was active: 30.8%. COc1cccc(CNC(=O)c2cc3c(=O)oc4ccc(C)cc4c3s2)c1 was tested, and the inhibition was 7.74%. For CC(=O)C1=C(c2ccc(Cl)cc2)N(C(C)=O)n2c(nnc2C2CCCCC2)S1, the inhibition was 13.5%. With Cc1ccc(Cl)cc1N(C)C(=O)c1cn(C2CCCCC2)c(=O)c2c1c1ccccc1n2C the inhibition was -7.21%. O=C1CSC(c2cccnc2)N1CCc1ccccn1 (stereo not drawn) was tested, and the inhibition was active: 54.6%. Work on Cc1ccc(N(CC(=O)Nc2cccc(Cl)c2)S(=O)(=O)c2cccs2)cc1 yielded an inhibition of -14.8%. With CCN(Cc1ccccc1)S(=O)(=O)c1ccc2c(c1)CC(C)N2C(=O)C1CCC1 (stereo not drawn) the inhibition was 15.4%. COc1ccc(NC(=O)c2ccc(CN3CCN(c4ccccc4)CC3)cc2)cc1OC was tested, and the inhibition was active: 70.8%. For CCC(C)NC(=O)c1cccc(NC(=O)c2nsc3ccccc23)c1 (stereo not drawn), the inhibition was -6.95%. With CC1(OC(=O)C2CCCC2)C(=O)C=C2C=C(c3ccsc3)N(C3CCCC3)C=C2C1=O (stereo not drawn) the inhibition was active: 37.4%. Molecule COc1ccccc1NC(=O)CSC1=Nc2ccccc2C2=NC(CCC(=O)NCc3cccs3)C(=O)N12 (stereo not drawn) has an inhibition of 8.94%. Work on CCCCN(CC)C(=O)Cn1ncc2c3ccccc3n(CCC)c2c1=O yielded an inhibition of 0.962%. In the case of CC(=O)c1c(C)[nH]c(C(=O)OCC(=O)Nc2nnc(-c3ccccc3)o2)c1C, the inhibition is reported as active: 34.9%. COc1ccc(-n2cc(C(=O)NCc3ccccc3Cl)c3ccccc3c2=O)cc1 showed an inhibition of -10.9%. With Cn1c(=O)[nH]c2cc(-c3noc(-c4cccc(Cl)c4)n3)ccc21 the inhibition was 7.61%. Molecule CCCNC(=O)Cn1nc(-c2ccc(F)cc2)c2cnc3ccc(F)cc3c21 has an inhibition of 2.67%. With CCC(C)[C@H](NC(=O)NC1CCN(Cc2ccccc2)CC1)C(=O)OC (stereo partly drawn) the inhibition was active: 56.6%. In the case of CCOc1ccc(Cn2c(CNS(=O)(=O)c3cccc(Cl)c3)nc3cccnc32)cc1, the inhibition is reported as 5.9%. Work on CCc1ccc(NC(=O)CSc2nc3c(sc4ccccc43)c(=O)n2CCCOC(C)C)cc1 yielded an inhibition of -5.68%. COc1ccccc1C(=O)N1CCN(Cc2cc(=O)oc3cc(C)ccc23)CC1 gave an inhibition of -16.6%. CCOC(=O)c1cc2sccc2n1Cc1ccc(C#N)cc1 was tested, and the inhibition was active: 31.1%. With Cc1ccc(CNC(=O)c2ccc(CSCc3ccccc3C)o2)cc1 the inhibition was 6.06%. COc1ccc(-c2nc3ccc(NS(=O)(=O)c4ccc(Cl)cc4)cc3o2)cc1 showed an inhibition of -4.25%.
